Several values for one entry are separate records, joined by “and”; a condition that tells them apart may be missing. Equal values may be shown once. Screen size: about 130,000 compounds; about 550 (0.42%) were called active. Another 4% or so got no clear call; they are omitted. Calls come from the whole dose curve; as a rule, active = well fitted inhibition curve with a large enough effect; inconclusive = small, poorly fitted or top-dose-only effect, or effect the other way; inactive = flat fitted curve, though single readings scatter. The entries are a selection whose mix differs from that of the whole data set. Some compounds were tested as several samples or in several runs, with calls that do not always agree.
test: qHTS Assay for Inhibitors of the ERK Signaling Pathway using a Homogeneous Screening Assay; Stimulation with EGF; settings: HEK293-V1b, EGF-stimulated phospho-ERK AlphaScreen; activity change, negative = inhibition: at the top concentration; note: nearly all actives have a fitted effect of over 55% in size;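 for activity change, negative = inhibition: plate controls were stimulated vehicle wells for no effect and unstimulated vehicle basal for full effect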
Source text: NIH Chemical Genomics Center [NCGC]
NIH Molecular Libraries Screening Centers Network [MLSCN]
Assay Submitter (PI): Dr. Wei Zheng, NCGC/NIH
The Ras/extracellular-signal-regulated kinase (ERK) mitogen activated protein (MAP) kinase signaling pathway (ERK1/2 cascade) plays a key role in transmitting signals from the cell surface to the nucleus (Nishida and Gotoh 1993; Chang and Karin, 2001). The cascade is initiated by the small G-protein Ras, which recruits Raf from the cytosol, where activation occurs. Alternatively, this pathway can be activated by elevating intracellular cAMP, or by activation of a receptor tyrosine kinase as epidermal growth factor receptor.
Activation of the ERK pathway is essential in increased cell division and cell survival. Sustained and constitutive activation of the ERK pathway, however, has been linked to uncontrolled cell proliferation, increased cell survival, and tumor progression. Thus, the ERK has been as an attractive target for cancer chemotherapy in the past few years (Sebolt-Leopold and Herrera, 2004). Given its physiological and pathological importance, assessment of ERK phosphorylation has been broadly performed in both basic research and drug discovery. Most assays for the measurement of ERK phosphorylation use the antibody-based detection methods, such as western blot and ELISA. These assays require multiple reagent additions with cell wash steps and are not suitable for high throughout screening.
The current cell-based ERK phosphorylation assay was performed using AlphaScreen platform. AlphaScreen is a two bead-based proximity-dependent chemical energy transfer luminescent assay platform. The assay reagents (ERK SureFire(TM) kit) were supplied from TGR BioSciences (Australia). In the presence of specific antibodies, phosphorylated ERK will bring "donor" and "acceptor" beads to a proximity range (<200 nm), and subsequently lead a chemical luminescent reaction upon exciting donor beads with 680 nm laser. To exclude the assay-related false positives, we used a biotinylated rabbit IgG to perform counter-screen. The biotinylated antibody mimics the phosphorylated ERK1/2 for bringing streptavidin coated beads and protein-A coated beads to a proximity range for the AlphaScreen detection.
NCGC Assay Protocol Summary:
HEK293 cells stably expressing type-1 vasopressin receptor (V1b) were maintained in DMEM medium (Invitrogen, Carlsbad, CA) at 37C under a humidified atmosphere containing 5% CO2 and 95% air. The medium contained 10% FBS, 2 mM L-glutamine, non-essential amino acid, pyruvate and 50 U/ml penicillin and 50 ug/ml streptomycin (Invitrogen). The aliquots of frozen cells were stored at -135C and used for the compound screening. All compounds were screened as titrations from 0.6 nM to 46 uM final concentration. Epidermal growth factor (EGF) was used to stimulate the ERK phosphorylation pathway. The ERK phosphorylation in cells was determined using an AlphaScreen assay kit provided by […]. Data were normalized to the controls for basal activity (DMSO only) and 100% activation (25 nM EGF). AC50 values were determined from concentration-response data modeled with the standard Hill equation.
(1) Seed 4 ul/well of resuspended frozen HEK293 cells containing 2000 cells in white 1536-well plates for overnight with 1% FBS at 37C under a humidified atmosphere containing 5% CO2 and 95% air.
(2) Add 23 nL compounds in DMSO solution. The final titration was 0.6 nM to 46 uM.
(3) Incubate at 37C for 30 min.
(4) Dispense 0.5uL EGF (25 nM in final)
(5) Incubate at 37C for 5 min.
(6) Dispense 0.5uL of 1:2 diluted 5x lysis buffer.
(7) Incubate at 37C for 10 min.
(8) Dispense 1.5uL of mixture of activation buffer and reaction buffer with AlphaScreen beads (streptavidin donor beads and protein-A acceptor beads, 10 ng/well for each).
(9) Incubate at room temperature for 5 hr.
(10) Detect the assay plate in an EnVision plate reader (PerkinElmer) using the AlphaScreen detection mode.
[…]
Potency is the fitted concentration of half-maximal effect.

| Compound | Potency | activity change, negative = inhibition |
| --- | --- | --- |
| CC(C)=CCc1c(O)cc2occ(-c3ccc4c(c3)OCO4)c(=O)c2c1O | active: 22.4 µM |  |
| CCOC(=O)C1=C(C)NC(C)=C(C(=O)OC)C1c1cccc([N+](=O)[O-])c1 (configuration not stated) | inactive |  |
| CCN1CCCC1CNC(=O)c1cc(S(=O)(=O)CC)c(N)cc1OC (configuration not stated) | inactive |  |
| COc1ccccc1OCCNCC(O)COc1cccc2[nH]c3ccccc3c12 (configuration not stated) | inactive |  |
| COc1ccc2cc1Oc1ccc(cc1)C[C@H]1c3c(cc4c(c3Oc3cc5c(cc3OC)CCN(C)[C@@H]5C2)OCO4)CCN1C |  | inactive: -8.74% [at 57.5 µM] |
| CN(C)CCCC1(c2ccc(F)cc2)OCc2cc(C#N)ccc21 (configuration not stated) | inactive |  |
| CCCCC1=NC2(CCCC2)C(=O)N1Cc1ccc(-c2ccccc2-c2nn[nH]n2)cc1 |  | inactive: 4.31% |
| Cc1[nH]n(-c2ccccc2)c(=O)c1N=Nc1ccc2c(c1)OCCO2 | active: 12.6 µM |  |
| CN(C)CCOC(c1ccccc1)c1ccccc1 (tested in a mixture with another compound) | inactive |  |
| Clc1ccccc1C(c1ccccc1)(c1ccccc1)n1ccnc1 | inactive and active: 22.4 µM |  |
| Cc1ccc(/C=C2/SC(=S)N(CCCC(=O)Nc3ccc(O)cc3)C2=O)cc1 |  | inactive: -6.25% [at 57.5 µM] |
| O=C(NN1C(=O)/C(=C/c2ccc(O)c([N+](=O)[O-])c2)SC1=S)c1ccccc1Cl |  | inactive: -5.66% |
| Oc1c(Cl)cc(Cl)cc1Sc1cc(Cl)cc(Cl)c1O |  | inactive: 6.7% |
| COc1ccc(/C=C\C(=O)Nc2ccccc2C(=O)O)cc1OC |  | inactive: -18.6% |
| CC[C@H](C)C(=O)O[C@H]1CCC=C2C=C[C@H](C)[C@H](CC[C@@H]3C[C@H](O)CC(=O)O3)C21 (some centres not stated) |  | inactive: 22.7% |
| CCCN1C(=O)/C(=C2/C=Cc3ccccc3N2CC)SC1=S | active: 5.62 µM |  |
| Cc1cccc(N=C2NC(=O)/C(=C\c3cccs3)S2)c1 |  | inactive: 3.29% |
| Clc1ccc(-c2ncc3ccccn23)cc1 | active: 31.6 µM |  |
| CC(C)N(CCC(=O)c1ccc2ccccc2c1)Cc1ccccc1 |  | inactive: -3.42% |
| COc1ccccc1NC(=O)/C(=C/c1cccs1)NC(=O)c1ccco1 |  | inactive: 4.14% [at 57.5 µM] |
| O=S(=O)(c1cccc2c(Cl)cccc12)N1CCCNCC1 |  | inactive: -8.2% |

| Compound | Potency | activity change, negative = inhibition |
| --- | --- | --- |
| Nc1nnc(-c2cccc(Cl)c2Cl)c(N)n1 | inactive |  |
| COc1ccc(OC)c(-c2c3cc(O)c(=O)cc-3oc3cc(O)c(O)cc23)c1 | active: 25.1 µM |  |
| COc1cccc(-c2ccc3ncnc(NCc4cccs4)c3c2)c1 | active: 28.2 µM |  |
| C=CC[C@H]1Cc2c(cccc2[N+](=O)[O-])[C@H](CC=C)N1 |  | inactive: 1.18% |
| CCCCOC(=O)c1ccc(O)cc1 |  | inactive: 0.364% [at 25.7 µM] |
| OC(CNCCc1ccc(C(F)(F)F)cc1)COc1ccc2ccccc2c1 (configuration not stated) | active: 35.5 µM |  |
| CC(C)COc1ccc(C(=O)N/C(=C\c2cccc([N+](=O)[O-])c2)C(=O)O)cc1 |  | inactive: 6.62% [at 57.5 µM] |
| O=C(O)c1cc(O)c2c(c1)C(=O)c1cc(O)cc(O)c1C2=O |  | inactive: 21.3% |
| CCOC(=O)C1=C(C)NC(C)=C(C(=O)OC)[C@@H]1c1cccc([N+](=O)[O-])c1 |  | inactive: 8.75% [at 25.7 µM] |
| CN1C(C(=O)Nc2ccccn2)=C(O)c2ccccc2S1(=O)=O | inactive |  |
| CC(/C=N\N1CCN(Cc2ccc(C)cc2)CC1)=C\c1ccccc1 |  | inactive: 5.84% |
| c1coc(CN(Cc2ccco2)c2ncnc3c2oc2ccccc23)c1 | active: 17.8 µM |  |
| COc1ccc(C2c3ccc4ccccc4c3Oc3ncn(CCCO)c(=N)c32)cc1 (configuration not stated) | active: 39.8 µM |  |
| O=C1Nc2ccc(I)cc2/C1=C/c1cc(Br)c(O)c(Br)c1 |  | inactive: -4.3% |
| CN(C(=O)COc1ccccc1C(=O)NCCOc1ccccc1)c1ccccc1 | active: 31.6 µM |  |
| Oc1cc2c(cc1O)C(c1ccccc1)CNCC2 (configuration not stated) | inactive |  |
| COc1cc2ncnc(Nc3cccc(Br)c3)c2cc1OC | active: 0.1 µM |  |
| C[C@H](C(=O)O)c1cccc(C(=O)c2ccccc2)c1 |  | inactive: -12.5% |
| O=C(Nc1nc(-c2ccccc2)cs1)c1ccc(N2CCOCC2)c([N+](=O)[O-])c1 | active: 3.98 µM |  |
| C[C@H](NC(=O)c1[nH]cnc1C(=O)Nc1ccc(CNC(=O)OC(C)(C)C)cc1)C(=O)OCc1ccccc1 | active: 31.6 µM |  |
| COCCCNC(=O)c1ccc2c3c(onc13)-c1ccccc1C2=O | active: 31.6 µM |  |

| Compound | Potency | activity change, negative = inhibition |
| --- | --- | --- |
| Cc1ccc(C(=O)c2cc3ccccc3o2)cc1[N+](=O)[O-] | active: 22.4 µM |  |
| CC12C(=O)OC(=O)C1(C)C1CCC2O1 (configuration not stated) |  | inactive: -11.4% |
| O=C(NCc1nc2ccccc2[nH]1)C1=C[C@@H](C2CCCCC2)C[C@@H](OCc2ccc(CO)cc2)O1 |  | inactive: -2.73% [at 57.5 µM] |
| N[C@H]1CONC1=O |  | inactive: 19.5% |
| CC1=NN(c2ccccc2)C(=O)/C1=C/C=C/c1ccccc1 | active: 15.8 µM |  |
| O=C1c2ccccc2C(=O)c2c(O)c(O)cc(O)c21 |  | inactive: -4.6% |
| O=C1c2ccccc2C(=O)c2c(Nc3ccc(CCO)cc3)ccc(O)c21 | active: 14.1 µM |  |
| COc1ccc(-c2cc(=O)c3c(OC)c(OC)c(OC)c(OC)c3o2)cc1OC | inactive |  |
| C[C@@]12C(=O)OC(=O)[C@@]1(C)[C@@H]1CC[C@@H]2O1 |  | inactive: -17.6% |
| NCCc1ccc(O)c(O)c1 | inactive |  |
| CC1=NN(c2ccccc2)C(=O)C1N=Nc1ccccc1 (configuration not stated) | active: 11.2 µM |  |
| O=C(Nc1ccccc1)/C(=C/c1ccc2c(c1)OCO2)NC(=O)c1ccco1 |  | inactive: 6.36% |
| CC(C)(C)NC(=O)[C@H]1CC[C@H]2[C@@H]3CC[C@H]4NC(=O)C=C[C@]4(C)[C@H]3CC[C@]12C |  | inactive: 24.4% |
| CCCCCCCCN[C@@H](C)[C@H](O)c1ccc(SC(C)C)cc1 |  | inactive: 1.04% [at 25.7 µM] |
| COc1cc(/C=C2/C(=O)c3cccc([N+](=O)[O-])c3C2=O)c(Br)cc1O | active: 28.2 µM |  |
| CC1CCN(C2=C(NS(=O)(=O)c3ccccc3)C(=O)c3ccccc3C2=O)CC1 | active: 17.8 µM |  |
| O=C1C=CC2=C3c4cc(O)c(O)cc4CC3(O)COC2=C1O (configuration not stated) |  | inactive: 5.21% |
| N[C@H](Cc1ccc(O)c(O)c1)C(=O)O |  | inactive: 2.39% |
| O=C(NCCc1cn2ccccc2n1)c1cc(COc2ccc3ncccc3c2)on1 | active: 28.2 µM |  |
| CC(=O)O[C@H]1CC2(C)[C@@H](C[C@@H](O)[C@H]3[C@@]4(C)CC[C@@H](O)[C@@H](C)[C@@H]4CC[C@@]32C)C1=C(CCC=C(C)C)C(=O)O (some centres not stated) |  | inactive: 5.18% |

From PubChem BioAssay AID1454 (National Center for Advancing Translational Sciences (NCATS), 2008)
